Measured values reported in patent US20130331317A1 (published 2013).

Target: T1, ligand-binding domain of human FGFR1c (D142 to R365) (human, UniProt P11362 142-365)
T1 chain: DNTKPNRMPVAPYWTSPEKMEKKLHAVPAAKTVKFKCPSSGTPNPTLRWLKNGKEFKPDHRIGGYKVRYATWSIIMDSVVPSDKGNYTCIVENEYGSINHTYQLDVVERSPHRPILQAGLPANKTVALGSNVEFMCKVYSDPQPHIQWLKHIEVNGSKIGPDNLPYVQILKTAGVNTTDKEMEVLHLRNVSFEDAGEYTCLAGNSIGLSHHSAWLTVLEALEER
Experiment: SPR

Binder | Kd
human FGF2 ([…]) (ligand) not shown | 58 nM
human FGF19 ([…]), N-terminally hexahistidine-tagged mature form (ligand) not shown | 1910 nM
